Consider 1 protein from publication PMC10359594 (Nucleic Acids Research, 2023).

The data set concerns the molecule itself. The data set can be described thus: crystal structure.

B1: oxidized SAMHD1 catalytic HD domain ([…]) (domain or fragment)
chain: not shown
modifications: disulfide bond between C341 and C350 (oxidized protein)
As to B1, the stoichiometry N (commonly a count of units in the complex or per binding partner) was determined as 2.
